# According to PubChem BioAssay AID463173 (ICCB-Longwood Screening Facility, Harvard Medical School, 2010):
# The campaign covered roughly 52,000 compounds. About 1,700 (3.3%) were called active. Rule as the data show it: active = survival mostly below about 52% (no sharp cut-off); inactive = mostly above about 56%. Some of the results follow.
# Tested on: Wild type
# Assay: S. aureus survival, RN4220 and DeltatarO strains – OD600, teichoic acid synthesis inhibitors, primary screen (AID 463173)
# Conditions: S. aureus RN4220 wild type/DeltatarO growth, OD600, 18 h, hits give low values, screened at 18.75 µg/mL (by protocol)
row,Compound,survival
1,CCOc1ccc(S(=O)(=O)Nc2cccc(C)c2)c2cccnc12,inactive: 104%
2,COc1cc(Cl)c(C)cc1NC(=O)c1ccc(CN2C(=O)CCn3nc(C)cc32)cc1,inactive: 71%
3,Cc1c(Cl)cccc1NC(=O)CSc1ncc(S(=O)(=O)c2ccc(C(C)C)cc2)c(=O)[nH]1,inactive: 84%
4,Cc1cc(C)cc(NC(=O)c2ccc3c(O)c(S(=O)(=O)c4ccccc4)c(=O)[nH]c3c2)c1,inactive: 91%
5,CCC(=O)Nc1ccccc1-c1nnn(CC(=O)N2c3ccccc3CC2C)n1 (centres undefined),inactive: 102%
6,CCOC(=O)c1c(C)[nH]c(C)c1S(=O)(=O)N1CCCC(C(=O)Nc2ccc(C)c(N(C)C)c2)C1 (centres undefined),inactive: 79%
7,CCOC(=O)c1[nH]c(C)c(CCC(=O)NCc2cccc(C)c2)c1C,inactive: 105%
8,Cc1ccc(OCC(=O)N(Cc2ccco2)c2ccccn2)cc1,inactive: 80%
9,CCNC(=O)C1CCCN(c2nnc(C)c3c(C)n(-c4ccc(C)cc4)nc23)C1 (centres undefined),inactive: 83%
10,CCCCOC(=O)c1ccc(NC(=O)Cc2coc3c(C)c(C)ccc23)cc1,inactive: 109%
11,COC(=O)c1ccccc1NC(=O)C1(c2cccs2)CCOCC1,inactive: 89%
12,Cc1cccc(CNC(=O)CN2C(=O)C3CCCCN3c3ccc(C(=O)N4CCCC4)cc32)c1 (centres undefined),inactive: 75%
13,Oc1c(C(c2ccccc2Cl)N2CCOCC2)sc2nc(-c3ccco3)nn12 (centres undefined),active: -2%
14,CCC(=O)N1CCc2cc(CNC(=O)Nc3cc(C)ccc3C)ccc21,inactive: 77%
15,Cc1ccc(C(=O)N2CCN(c3ccc(F)cc3)CC2)cc1NC(=O)c1nsc2ccccc12,inactive: 87%
16,Cc1ccc(-c2nnc(Nc3ccc(Cl)c(Cl)c3)c3ccccc23)cc1S(=O)(=O)N(C)C,inactive: 84%
17,COc1ccc(CCNS(=O)(=O)c2ccc(F)c(C(=O)Nc3ccc(Cl)cc3)c2)cc1OC,inactive: 126%
18,COc1ccc(CCN2C(=O)CN=C2Nc2ccc(F)cc2)cc1OC,inactive: 98%
19,CC(=O)N1CCN(c2nc3c(C)ccc(Cl)c3s2)CC1,inactive: 74%
20,CC(=O)c1cccc(NC(=O)Cn2c(=O)oc3cc(S(=O)(=O)NC4CCCC4)ccc32)c1,inactive: 82%
21,NNC(=O)CCC(=O)Nc1ccccc1,inactive: 112%
22,CC(=O)c1ccc(Nc2nc3ccccc3nc2-n2nc(C)cc2C)cc1,inactive: 54%

row,Compound,survival
1,Cc1ccc(C)c(Cn2c3ccccc3c3cnn(CC(=O)NCC(C)c4ccccc4)c(=O)c32)c1 (centres undefined),inactive: 86%
2,COc1cccc(NC(=O)CSc2nccn2Cc2ccc3c(c2)OCO3)c1,inactive: 82%
3,Cc1nc(-n2nc(C)c(Cc3ccc(Cl)cc3)c2C)sc1C(=O)N1CCCCC1C (centres undefined),inactive: 126%
4,CCOC(=O)C1=NN(c2ccc(C)cc2)CC1C(=O)OC (centres undefined),inactive: 101%
5,CCC(C)(C)N1CC(=O)N(Cc2ccccc2)C(c2ccc(OC)cc2)C1=O (centres undefined),inactive: 105%
6,O=C(CSCc1ccccc1Cl)NCc1ccc(Cl)c(Cl)c1,inactive: 148%
7,CCC1(CC)C(=O)N(C)C(=O)NC1=Nc1ccccc1,inactive: 114%
8,O=c1[nH]c2ccc(NCc3ccc(-c4ccc(Cl)cc4)o3)cc2[nH]1,inactive: 111%
9,CCOc1ccccc1Nc1nc(-c2ccc(C)cc2)c(CC(=O)O)s1,inactive: 71%
10,COc1ccc(C2c3c(oc4ccc(Cl)cc4c3=O)C(=O)N2CCCN(C)C)cc1OC (centres undefined),inactive: 71%
11,COc1cccc(CNC(=O)CN2C(=O)N(c3c(C)cccc3C)S(=O)(=O)c3ccccc32)c1OC,inactive: 67%
12,Nc1nnc(SCC(=O)N2CCN(c3ccccc3)CC2)s1,inactive: 113%
13,COc1ccc(OC)c(NC(=O)C(C)n2nc(C)c3c(C)n(-c4ccccc4)nc3c2=O)c1 (centres undefined),inactive: 74%
14,Cc1ccc(NC(=O)CN2C(=O)CC(c3ccc(F)cc3)=Nc3ccccc32)cc1F,inactive: 83%
15,COc1ccc2c(c1)CCc1c(C(=O)Nc3c(C)nn(Cc4ccc(Cl)cc4)c3C)noc1-2,inactive: 64%
16,CCOc1ccc(NC(=O)Cn2nnc(C(=O)NCc3cccs3)c2N)cc1,inactive: 97%
17,Cc1cccc(C)c1NC(=O)CCS(=O)(=O)c1ccc2c(c1)CC(C)N2C(=O)C1CC1 (centres undefined),inactive: 55%
18,COc1ccc(/C=C\c2onc(C)c2S(=O)(=O)N2CCC(C(=O)Nc3cccc(C)c3C)CC2)cc1,inactive: 76%
19,CCOC(=O)c1cccc(NC(=O)CCc2c(C)nn(-c3ccc(N4CCCC4)nn3)c2C)c1,inactive: 66%
20,Cc1ccc(OCC(=O)NCC2(N3CCOCC3)CCCCC2)cc1C,inactive: 104%
21,Cc1ccc(-c2nc3ccccc3s2)cc1NC(=O)COc1ccccc1,inactive: 75%
22,CCOc1ccc(/C=C/c2nc(C#N)c(N3CCCCC3)o2)cc1,inactive: 77%
